Positions count from the first letter of the chain named.
T1: TIGIT (UniProt Q495A1 22-141, limits assumed)
T1 construct: construct not described; also called T cell immunoreceptor with Ig and ITIM domains
T1 sequence (looked up): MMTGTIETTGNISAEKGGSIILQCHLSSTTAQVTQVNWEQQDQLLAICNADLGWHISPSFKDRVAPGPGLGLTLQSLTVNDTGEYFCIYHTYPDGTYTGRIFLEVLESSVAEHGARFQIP

T2: TIGIT (UniProt Q495A1 22-141, limits assumed)
T2 construct: also called T cell immunoreceptor with Ig and ITIM domains; hTIGIT
T2 sequence (looked up): T1 sequence (looked up)

B1: TIGIT-29-4 VHH-Fc (Fc fusion)
chain: EVQLVESGGGLVQAGGSLRLSCAASGSTFDTYVMGWFRQAPGKERELVSTISSDGDSTYYADSVKGRFTISADNAKNTVYLQMNSLKPEDTAVYYCAAGTRRGRNYWGQGTQVTVSSGGGGS[in this place human IgG1 Fc with C220S (EU numbers)]
B2: TIGIT-29-18 VHH-Fc (Fc fusion)
chain: EVQLVESGGGLVQAGGSLRLSCAASGSTFSNYAMGWFRQAPGKEREFVSAINSSGSRTYYADSVKGRFTISADNAKNTVYLQMNSLKPEDTAVYYCAARLWGTWTAGDYDYWGQGTQVTVSSGGGGS[in this place human IgG1 Fc with C220S (EU numbers)]
B3: TIGIT-29-34 VHH-Fc (Fc fusion)
chain: B2 chain with S27F, S30R, A50S, N52S, G55S, Y59S
B4: TIGIT-29-11 VHH-Fc (Fc fusion)
chain: B2 chain with S27R, F29L, N31S, S49A, A50S, N52T, S53W, S54G, S56G, A98T
B5: TIGIT-29-22 VHH-Fc (Fc fusion)
chain: B2 chain with T28I, F29L, N31S, A33T, A50T, N52S, S53R, G55S, S56T
B6: TIGIT-29-15 VHH-Fc (Fc fusion)
chain: EVQLVESGGGLVQAGGSLRLSCAASGRTFDSYAMGWFRQAPGKEREGVATISGSGGRTYYADSVKGRFTISADNAKNTVYLQMNSLKPEDTAVYYCAAAAWTIYEFDSWGQGTQVTVTSGGGGS[in this place human IgG1 Fc with C220S (EU numbers)]
B7: TIGIT-29-25 VHH-Fc (Fc fusion)
chain: B6 chain with R27F, S31N, T50A, S52T, G53W, F106Y
B8: TIGIT-29-21 VHH-Fc (Fc fusion)
chain: EVQLVESGGGLVQAGGSLRLSCAASGSTFSNYAMGWFRQAPGKERELVSAITWSSSRTYYADSVKGRFTISADNAKNTVYLQMNSLKPEDTAVYYCAAAAWTIYNFEYWGQGTQVTVSSGGGGS[in this place human IgG1 Fc with C220S (EU numbers)]
B9: TIGIT-29-9 VHH-Fc (Fc fusion)
chain: EVQLVESGGGLVQAGGSLRLSCAASGFTFDNYAMGWFRQAPGKEREFVSSITWSGGRTSYADSVKGRFTISADNAKNTVYLQMNSLKPEDTAVYYCAANAWTIYRYDYWGQGTQVTVSSGGGGS[in this place human IgG1 Fc with C220S (EU numbers)]
B10: TIGIT-29-44 VHH-Fc (Fc fusion)
chain: B9 chain with S49A, S50T, G56T, R57T, S59N, N99A, R105D
B11: TIGIT-29-37 VHH-Fc (Fc fusion)
chain: B9 chain with F27R, D30S, S49A, S50G, T52S, G56T, S59Y, N99A, R105E
B12: TIGIT-29-07 VHH-Fc (Fc fusion)
chain: EVQLVESGGGLVQAGGSLRLSCAASGSIFSNYAMGWFRQAPGKEREFVATISRGGTRTNYADSVKGRFTISADNAKNTVYLQMNSLKPEDTAVYYCAAAAWTIYAYNYWGQGTQVTVSSGGGGS[in this place human IgG1 Fc with C220S (EU numbers)]
notes: also called TIGIT-29-7; 29-7
B13: TIGIT-29-45 VHH-Fc (Fc fusion)
chain: B9 chain with D30S, N31S, S49A, G56T, S59D, N99A, R105G, D107E
B14: TIGIT-29-33 VHH-Fc (Fc fusion)
chain: B8 chain with S27F, T28I, N31T, W53R, S55G, S56I, R57T, N105E, F106Y, E107D
B15: TIGIT-29-13 VHH-Fc (Fc fusion)
chain: B9 chain with T28I, D30S, S49A, S50A, S59Y, N99A, R105E
B16: TIGIT-29-12 VHH-Fc (Fc fusion)
chain: B12 chain with I28T, N31S, T50A, S52T, R53W, G54S, A105T, N107D, Y108S
B17: TIGIT-29-36 VHH-Fc (Fc fusion)
chain: B9 chain with D30S, N31S, S49A, G56T, R57S, S59N, N99A, R105A
B18: TIGIT-29-02 VHH-Fc (Fc fusion)
chain: EVQLVESGGGLVQAGGSLRLSCAASGRTFDIYAMGWFRQAPGKEREWVSTISWSGGRTYYADSVKGRFTISADNAKNTVYLQMNSLKPEDTAVYYCAARPVYRTYGSWGQGTQVTVSSGGGGS[in this place human IgG1 Fc with C220S (EU numbers)]
B19: TIGIT-29-35 VHH-Fc (Fc fusion)
chain: EVQLVESGGGLVQAGGSLRLSCAASGRIFSIYTMGWFRQAPGKEREWVATINSSGSRTYYADSVKGRFTISADNAKNTVYLQMNSLKPEDTAVYYCAARPSYNRYDSWGQGTQVTVSSGGGGS[in this place human IgG1 Fc with C220S (EU numbers)]
B20: TIGIT-29-5 VHH-Fc (Fc fusion)
chain: B19 chain with I28T, T33A, N52S, S56D, P100R, S101Y, Y102G, N103R, S107Y
B21: TIGIT-29-06 VHH-Fc (Fc fusion)
chain: B19 chain with R27G, I28T, S30R, I31S, T33V, S101N, N103R, R104D, D106E, S107Y
notes: also called 29-6
B22: TIGIT-29-31 VHH-Fc (Fc fusion)
chain: B18 chain with R27F, D30S, R57N, A98T, V101R, Y102F, T104R, G106D
B23: TIGIT-29-16 VHH-Fc (Fc fusion)
chain: B18 chain with R27S, T28I, D30S, S49A, S54G, G56N, R57S, V101R, Y102F, S107Y
B24: TIGIT-29-29 VHH-Fc (Fc fusion)
chain: B9 chain with F27R, D30S, S49A, S50A, G56T, S59D, N99A, R105E
B25: TIGIT-29-26 VHH-Fc (Fc fusion)
chain: B9 chain with S49A, S50T, G56T, S59N, N99A, R105D
B26: TIGIT-29-40 VHH-Fc (Fc fusion)
chain: B9 chain with S49A, S50T, G56T, S59N, N99A, R105D
B27: TIGIT-29-03 VHH-Fc (Fc fusion)
chain: EVQLVESGGGLVQAGGSLRLSCAASGFTFSSYAMGWFRQAPGKEREFVAAITWSGTRTDYADSVKGRFTISADNAKNTVYLQMNSLKPEDTAVYYCAAAAWRYSEYDYWGQGTQVTVSSGGGGS[in this place human IgG1 Fc with C220S (EU numbers)]
notes: also called 29-3
B28: TIGIT-29-30 VHH-Fc (Fc fusion)
chain: B27 chain
B29: TIGIT-30-54 (VHH-Fc) (Fc fusion)
chain: EVQLVESGGGLVQAGGSLRLSCAASGFTFRSFGMGWFRQAPGKEREFVASTIWSRGDTYYADSVKGRFTISADNAKNTVYLQMNSLKPEDTAVYYCASSPYGPLYRSTHYYDWGQGTQVTVSSGGGGS[in this place human IgG1 Fc with C220S (EU numbers)]

target: T1, TIGIT; assay: ELISA

Row | ELISA | Binder
1 | 7.7 | B1
2 | 10.9 | B2
3 | 8.6 | B3
4 | 10.4 | B4
5 | 3.4 | B5
6 | 9.3 | B6
7 | 6.3 | B7
8 | 4.3 | B8
9 | 6 | B9
10 | 7.4 | B10
11 | 5.3 | B11
12 | 7.3 | B12
13 | 10.6 | B13
14 | 3.9 | B14
15 | 4.8 | B15
16 | 6.2 | B16
17 | 3.5 | B17
18 | 4.1 | B18
19 | 3.1 | B19
20 | 3.1 | B20
21 | 6.8 | B21
22 | 4.4 | B22
23 | 4.2 | B23

target: T1, TIGIT; assay: Carterra SPR, VHH-Fc

Row | Kd | koff | kon | Binder
24 | 109 nM | 20 s⁻¹ | 1.9e+08 M⁻¹ s⁻¹ | B1
25 | 78 nM | 0.05 s⁻¹ | 640000 M⁻¹ s⁻¹ | B2
26 | 80 nM | 13 s⁻¹ | 1.6e+08 M⁻¹ s⁻¹ | B3
27 | 103 nM | 44 s⁻¹ | 4.3e+08 M⁻¹ s⁻¹ | B4
28 | 65 nM | 0.019 s⁻¹ | 290000 M⁻¹ s⁻¹ | B5
29 | 108 nM | 110 s⁻¹ | 1e+09 M⁻¹ s⁻¹ | B24
30 | 145 nM | 150 s⁻¹ | 1e+09 M⁻¹ s⁻¹ | B6
31 | 105 nM | 87 s⁻¹ | 8.2e+08 M⁻¹ s⁻¹ | B25
32 | 90 nM | 69 s⁻¹ | 7.6e+08 M⁻¹ s⁻¹ | B26
33 | 138 nM | 42 s⁻¹ | 3e+08 M⁻¹ s⁻¹ | B7
34 | 88 nM | 0.0024 s⁻¹ | 28000 M⁻¹ s⁻¹ | B8
35 | 176 nM | 180 s⁻¹ | 1e+09 M⁻¹ s⁻¹ | B9
36 | 183 nM | 130 s⁻¹ | 7.3e+08 M⁻¹ s⁻¹ | B10
37 | 89 nM | 89 s⁻¹ | 1e+09 M⁻¹ s⁻¹ | B11
38 | 41 nM | 0.0047 s⁻¹ | 110000 M⁻¹ s⁻¹ | B12
39 | 119 nM | 0.068 s⁻¹ | 570000 M⁻¹ s⁻¹ | B13
40 | 74 nM | 74 s⁻¹ | 1e+09 M⁻¹ s⁻¹ | B14
41 | 221 nM | 220 s⁻¹ | 1e+09 M⁻¹ s⁻¹ | B15
42 | 70 nM | 70 s⁻¹ | 1e+09 M⁻¹ s⁻¹ | B16
43 | 165 nM | 140 s⁻¹ | 8.6e+08 M⁻¹ s⁻¹ | B17
44 | 94 nM | 0.11 s⁻¹ | 1.2e+06 M⁻¹ s⁻¹ | B27
45 | 65 nM | 0.096 s⁻¹ | 1.5e+06 M⁻¹ s⁻¹ | B28
46 | 204 nM | 8.5 s⁻¹ | 4.2e+07 M⁻¹ s⁻¹ | B18
47 | – | 0.02 s⁻¹ | 490 M⁻¹ s⁻¹ | B19
48 | 1680 nM | 0.34 s⁻¹ | 200000 M⁻¹ s⁻¹ | B20
49 | 69 nM | 0.0068 s⁻¹ | 99000 M⁻¹ s⁻¹ | B21
50 | 96 nM | 0.009 s⁻¹ | 95000 M⁻¹ s⁻¹ | B22
51 | 246 nM | 53 s⁻¹ | 2.1e+08 M⁻¹ s⁻¹ | B23

target: T2, TIGIT; assay: SPR (Carterra), VHH-Fc

Row | Kd | koff | kon | Binder
52 | 58 nM | 0.014 s⁻¹ | 240000 M⁻¹ s⁻¹ | B29

— patent publication US20260184782A1 (TWIST BIOSCIENCE, published 2026)
